The other results are listed elsewhere or left out. At the low end of the ranking the order means little.
The sequences below were run against SIX1-Q177R homeodomain (UniProt Q15475) (assay: universal protein binding microarray). Conditions: Universal all-10-mer PBM (8x60K, AMADID 030236), 300 nM GST-tagged protein, Alexa Fluor 488 anti-GST; buffer, salt, pH and temperature not stated; high values mean tight binding; most listed sequences are background and not binding sites; double strand, one strand shown.

Sequence | binding signal
ATAACAAC | 0.00677 E-score
ATCGCCAG | -0.0992 E-score
CTACTGAG | -0.0489 E-score
TGCCATAA | -0.0217 E-score
ACATTAAA | -0.129 E-score
CTTCAGGC | 0.00547 E-score
ACCGGGCA | 0.037 E-score
ACCGCTAG | 0.171 E-score
AAATGATT | -0.224 E-score
CTCGATTA | 0.0237 E-score
AATCGCGG | -0.0765 E-score
CCCGATCC | 0.239 E-score
CCCCATAG | 0.209 E-score
AACAAATT | -0.174 E-score
CACCGATA | 0.313 E-score
ACCGGCAA | -0.0503 E-score
ACGCGTCC | 0.174 E-score
CGAATAAC | 0.0493 E-score
ATATGATC | 0.0526 E-score
TCCTAAAA | -0.0345 E-score
ACCATTCC | 0.0494 E-score
GCATATGA | 0.0212 E-score

Sequence | binding signal
GCTCGTGA | -0.103 E-score
ATCGCGGC | -0.137 E-score
AACGAAGT | -0.0611 E-score
AAGGATCC | 0.178 E-score
ATAGCTCA | -0.144 E-score
GGGGGAAA | -0.141 E-score
ACTATCCC | 0.0126 E-score
GTTGCGCA | -0.122 E-score
AAGCGTGC | -0.00144 E-score
GCCTGAGC | -0.139 E-score
CTTCGAAG | -0.0709 E-score
ACGAACAT | -0.118 E-score
GGCCTACC | -0.0529 E-score
GTAGACCA | -0.141 E-score
GTAAACAC | 0.375 E-score
ACCGATTA | 0.0958 E-score
AGGTATCA | 0.324 E-score
CCTCAACG | -0.0648 E-score
AGCAAAGA | -0.142 E-score
TAGCTGGA | -0.0783 E-score
AAATGATA | 0.0796 E-score
GTAGCCTA | -0.00659 E-score

Sequence | binding signal
GCCGGGAA | -0.248 E-score
ATTCGTTG | -0.138 E-score
AAACCGAA | 0.0031 E-score
CCGGGGCC | -0.116 E-score
ATCATGCC | -0.131 E-score
AGAATGCT | -0.152 E-score
TATCGACA | 0.212 E-score
ACAAGCTG | -0.0734 E-score
CGCGCAAA | 0.0874 E-score
ATTCACTA | -0.00613 E-score
CCGCTGGA | -0.1 E-score
AATCTCGA | -0.19 E-score
GGCAGGCA | -0.224 E-score
GACCTCTC | -0.152 E-score
ATTACGGC | -0.169 E-score
ACTCGTTG | -0.063 E-score
TAGCCCCA | 0.0826 E-score
ATTCTTGC | -0.129 E-score
GCTGGTAC | -0.0799 E-score
AAAAACCG | -0.0883 E-score
AGAGAAAG | -0.15 E-score
ATACCTAA | 0.0493 E-score

Sequence | binding signal
ACCCTAAT | 0.099 E-score
GTTCACAA | -0.00229 E-score
CCGAGTGC | 0.14 E-score
GACGAAGA | -0.236 E-score
CCATGGCG | 0.0146 E-score
GATAGTCC | 0.0164 E-score
ATTTTAAC | -0.155 E-score
GGTCAAAC | -0.0349 E-score
ACTATTGA | 0.0882 E-score
CGAGTTGA | -0.0495 E-score
CTATTGTC | -0.125 E-score
AGCGCTAC | -0.0635 E-score
ACCGATCT | -0.0586 E-score
ACCGATAG | 0.0859 E-score
GATATCCC | 0.193 E-score
AGCTCCGC | -0.0589 E-score
AAACGTCT | -0.0938 E-score
AAGGCTTC | -0.214 E-score
GCGAGCAC | 0.135 E-score
ACAGCGGG | -0.154 E-score
